The values that follow come from publication PMC12136788.

The other results are listed elsewhere or left out.

Sequences and labels used below:
B1: ENSG00000113083:stop:overlap|stop_codon|ENSG00000113083|stop_codon|NA|stop_codon (ssRNA)
RNA: GGGAGUUCUACAGUCCGACGAUCGUGACAUUCGCUACACAGGACAUCAUGCGUAUGCCUCAGGCUGCACAAUUUCACCGUAUUAGAAGGCAAAGCAAAACUCCCAAUGGAUAAAUCAGUGCCUGGUGUUCUGAAGUGGGAAAACAACAGAGGAUUGAGCAUCA
B2: chr22:21445082:21445183:+|CDS|ENSG00000169635|msi1|total|mutant (ssRNA)
RNA: GGGAGUUCUACAGUCCGACGAUCCCUGUGUGACGUCAUCAUCAUGGUGGAGAACUCCAUCUUCCGGGCCCACAAGAACGUCCCCGCCGCCAGCAGCAUCUAUUUCAAGUCCCUGGUCCUGCACGACAACCUCAUCAACCUGGACAACAGAGGAUUGAGCAUCA
B3: chr10:113908677:113908778:+|3pUTR|ENSG00000196865|unk|total|mutant (ssRNA)
RNA: GGGAGUUCUACAGUCCGACGAUCAGCUAUGCUCCUUACUUACUUCUUUUAUUAUAAACAAAUUCCUUUGCUUUGGCUGAUACCCGCUGAGUCAUUGAUCAUCAUUGGUACCAUGAUAUUGUAAUCUAUGCUGCUAUUUGGCACCAACAGAGGAUUGAGCAUCA
B4: ENSG00000136451:be:win_2951|3pUTR|ENSG00000136451|bound_else_gene|NA|bound_elsewhere_windowed (ssRNA)
RNA: GGGAGUUCUACAGUCCGACGAUCAAAAUUAACUAAACCAAGAUGCUGUGAUUUUUUAAGUUGCAAUAUGUUUUUGGUUUUUUUCAUUUUUUAAUCAUUGCAGUUAAGAGAAAUGGAAAUUAGUUGUGUUAAUCUUGCAGAAUGCAACAGAGGAUUGAGCAUCA
B5: chr2:224511460:224511569:-|CDS|ENSG00000036257|unk|FALSE|bound_elsewhere (ssRNA)
RNA: GGGAGUUCUACAGUCCGACGAUCGAAAGCCAGAAAUUUUUAGCAGAAAAUAGUGCUUCAGUAUAUAUAAAGAAAGUAGAAGCUAGAAUUAAUGAAGAAAUAGAACGAGUGAUGCACUGCCUUGACAAAUCAACGGAAGAACCACAACAGAGGAUUGAGCAUCA
B6: ENSG00000124766:be:win_101|CDS|ENSG00000124766|bound_else_gene|NA|bound_elsewhere_windowed (ssRNA)
RNA: GGGAGUUCUACAGUCCGACGAUCCCACGCCCGGCUCCACCGCCUCCACGGGCGGCAAGGCCGACGACCCGAGCUGGUGCAAGACCCCGAGUGGGCACAUCAAGCGACCCAUGAACGCCUUCAUGGUGUGGUCGCAGAUCGAGCCAACAGAGGAUUGAGCAUCA
B7: chr5:83942588:83942842:-|3pUTR|ENSG00000164176|msi1|FALSE|unique (ssRNA)
RNA: GGGAGUUCUACAGUCCGACGAUCUUUUCUAAUUGAAUUUCCUAUUAGUUGACUAAAAGAAGUGUCAUGUUUACUCAUAUAUGUAGAACAUGACUGCCUAUCAGUAGAUUGAUCUGUAUUUAAUAUUCGUUAAUUAAAUCUGCACAACAGAGGAUUGAGCAUCA
B8: chrX:142202868:142203987:-|CDS|ENSG00000046774|control|control|control (ssRNA)
RNA: GGGAGUUCUACAGUCCGACGAUCUCAGAAAGCAUCAAGAAGAAAGUACUAGAGUUUUUAGCCAAGCUGAACAACACUGUUCCUAGUUCCUUUCCAUCCUGGUACAAGGAUGCUUUGAAAGAUGUGGAAGAGAGAGUCCAGGCCCAACAGAGGAUUGAGCAUCA
B9: chr7:6409910:6410025:-|CDS|ENSG00000164535|unk|FALSE|unique (ssRNA)
RNA: GGGAGUUCUACAGUCCGACGAUCCUCUGCUGCUCACUAUAGCGCCAAGUGGUCACACGAAGCGGAAUUCAGCAAAAUACUCAUAGGUCCGAAGAUGCUCACCGACCACAUGCCAGACAUCCUGAUGCGGGCCUUGGACAGCGUCAACAGAGGAUUGAGCAUCA
B10: chr20:53567570:53567671:-|3pUTR|ENSG00000171940|unk|FALSE|unique (ssRNA)
RNA: GGGAGUUCUACAGUCCGACGAUCUCACAAGCUGAGCCAUAUGUACAUAAUCUAGAUUUUGUUUUCAUAGUUUUGCACUUUUAUAGCCUAUUUUUGAAGAUUAACACAUUUGCAAGAUGAUUGACUCAAUCUUUGCCUAAUCCACAACAGAGGAUUGAGCAUCA
B11: chr8:63210610:63210711:+|3pUTR|ENSG00000185728|msi1|total|mutant (ssRNA)
RNA: GGGAGUUCUACAGUCCGACGAUCCAUGAAGUAAAAAUUUAUUACUCCCGGUAUUCACCCGCUAAAUAAACACCGUUCUUGUUCCGCAAGCAUAUGUUGUUCCUCAGCUCUUUUCUCCAGCUUUUGCAGUGUCCUGGCAUCCUUCAACAGAGGAUUGAGCAUCA
B12: ENSG00000070961:be:win_6401|3pUTR|ENSG00000070961|bound_else_gene|NA|bound_elsewhere_windowed (ssRNA)
RNA: GGGAGUUCUACAGUCCGACGAUCCUGGCUUCAUUUCUGUGAAAUUGCUCUUUGAAAAUUUCUUUUUACACGUGUAAGCCAACUGAGAUACCGUGAUGGUGUUGAUUUCUUUCAAUGAUGCUUACCAUCUAUUUUAGCCACUGACAACAGAGGAUUGAGCAUCA
B13: chr17:29166540:29166641:-|CDS|ENSG00000196535|unk|FALSE|unique (ssRNA)
RNA: GGGAGUUCUACAGUCCGACGAUCCUGGACUCGGGCCACCUAAGUACAGCCAGCUCCAGCGAUGACCUCAAGGGUGAGGAGGGUAGCUUCCGUGGCUCGGUGCUGCAGCGGGCAGCCAAGUUCGGCUCACUGGCCAAGCAGAACCAACAGAGGAUUGAGCAUCA
B14: chr7:6403675:6403689:+|3pUTR|ENSG00000136238|msi1_unk|total|mutant (ssRNA)
RNA: GGGAGUUCUACAGUCCGACGAUCACUGUCACUUGACCAAUACUGACCCUCUUUACCUCGCCCACGCGGACACACGCCUCCUGCCGUCGCUUUGCCUAUUGAUGUUCCUUUGGGUCUGUGAGGUUCUGUAAACUGUGCCCGUGCCAACAGAGGAUUGAGCAUCA

The target of the assay is MSI1 full-length (mouse, UniProt Q61474 1-362). Kind of assay: nsRBNS (natural sequence RNA bind-n-seq); RBNS binding buffer (assumed for nsRBNS): 25 mM Tris pH 7.5, 150 mM KCl, 3 mM MgCl2, 0.01% Triton X-100, 500 ug/ml BSA, 20 U/ml SUPERase-In, 4 C; UNK is unkempt and MSI1 is Musashi-1; names of the RNAs are library labels; protein concentration not given here; high values mean tight binding.
UniProt Q61474, sequence (Q61474 whole entry): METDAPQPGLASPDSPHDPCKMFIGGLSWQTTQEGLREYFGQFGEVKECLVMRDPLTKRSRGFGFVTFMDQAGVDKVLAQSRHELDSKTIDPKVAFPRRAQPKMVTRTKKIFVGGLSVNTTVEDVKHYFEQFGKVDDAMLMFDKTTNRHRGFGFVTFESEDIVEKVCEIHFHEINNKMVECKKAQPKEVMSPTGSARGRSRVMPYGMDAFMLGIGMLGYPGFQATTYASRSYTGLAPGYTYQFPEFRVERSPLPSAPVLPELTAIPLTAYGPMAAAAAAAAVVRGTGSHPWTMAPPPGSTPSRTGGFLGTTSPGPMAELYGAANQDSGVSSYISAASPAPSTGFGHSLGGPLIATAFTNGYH
Consider B1, for which the binding signal stood at 6.59 enrichment R.
The value for B2 was 0.628 enrichment R; that for B3 was 3.24 enrichment R; that for B4 was 0.484 enrichment R.
In the case of B5, the binding signal turned out to be 36.5 enrichment R.
The value for B6 was 0.283 enrichment R; that for B7 was 3.81 enrichment R; that for B8 was 0.418 enrichment R.
To B9 belongs 0.741 enrichment R; to B10, 4.98 enrichment R.
In turn, B11 displayed a binding signal of 1.33 enrichment R.
The value for B12 was 0.46 enrichment R; that for B13 was 0.512 enrichment R; that for B14 was 0.582 enrichment R.
